Among all 45,000 compounds or so, about 200 (0.44%) were called active. Not shown: some 7% with an inconclusive outcome. Calls come from the whole dose curve; as a rule, active = well fitted activation curve with a large enough effect; inconclusive = small, poorly fitted or top-dose-only effect; inactive = no such curve, though single readings can be large or run the other way. This is one part of the list.
Experiment: qHTS of TDP-43 Inhibitors: NCGC Sytravon Library Screen; note: 0% is about no effect; nearly all actives have a fitted effect of over 55% in size
Details: yeast TDP-43 toxicity rescue, BacTiter-Glo growth, 24 h; series mostly up to 46.1 µM; growth rescue (activation): at the top concentration
Method in brief: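 TDP-43-expressing yeast, pregrown in raffinose, seeded at OD600 0.02 in galactose medium with compound for 24 hr at 30 deg C. Growth read by BacTiter-Glo luminescence, so rescue of toxicity appears as activation.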

SMILES	growth rescue (activation)
Cc1ccc2nc(-c3ccc(N4C(=N)SC5CS(=O)(=O)CC54)cc3)sc2c1 (stereo not given)	inactive: -0.323%
COc1ccccc1C(=O)NCCc1nc2ccccc2n1C	inactive: 14.1%
CC/C(O)=C1\C(=O)CC(c2ccccc2)CC1=NCCC(=O)O (stereo not given)	inactive: -8.44%
Cc1cc(C)cc(N(C(=O)CCC(=O)Nc2cc(C)on2)C(C(=O)NC2CCCC2)c2ccco2)c1 (stereo not given)	inactive: -18.9%
COc1ccc(S(=O)(=O)N2CCN(Cc3ccco3)CC2)cc1	inactive: 13.3%
Cc1ccccc1S(=O)(=O)NC(=O)C1(C)CCN1C(=O)COc1ccc(Cl)cc1 (stereo not given)	inactive: 11%
Cc1nc2ncccn2c1-c1csc(Nc2cccc(C(=O)O)c2)n1	inactive: 10.2%
COc1ccc(Cl)cc1NC(=O)C(=O)NCc1ccncc1	inactive: -14.6%
Cc1ccccc1Cn1cc(NC(=O)CCCn2nc([N+](=O)[O-])cc2C)cn1	inactive: -1.75%
O=C(O)c1ccc(Cl)c(S(=O)(=O)N(Cc2ccccc2)c2ccc(Cl)cc2)c1	inactive: -4.45%
CCCCNC(=O)C1CCCN(S(=O)(=O)CC)C1 (stereo not given)	inactive: -4.74%
OCCC1CN(Cc2c(F)cccc2Cl)CCN1C1CCCCC1 (stereo not given)	inactive: -4.6%
COCCN(Cc1nnc(-c2cccs2)o1)C(=O)CN1C(=O)NC2(CCCCC2)C1=O	inactive: -16.2%
O=C(CCCc1c[nH]c2ccccc12)NCc1ccccc1F	inactive: -3.69%
CCOc1ccc(C(CC(=O)O)NC(=O)c2cccs2)cc1 (stereo not given)	inactive: -0.98%
CC(=O)Nc1ncc(Cc2cccc(Cl)c2)s1	inactive: -11.8%
O=C(Nc1ccc2c(c1)OCCO2)C1CCCN1C(=O)Nc1ccccc1 (stereo not given)	inactive: 9.22%
COc1ccc(-c2cc(C(F)(F)F)n3nc(C(=O)N4CCN5CCCC5C4)cc3n2)cc1OC (stereo not given)	inactive: -23.4%
Cc1ccc(S(=O)(=O)N2CCN(S(=O)(=O)N3CCCCCC3)CC2)cc1	inactive: 1.03%
CCOc1cc(-c2noc(CCC(=O)NCC3CCCO3)n2)ccc1OC (stereo not given)	inactive: 1.13%
CC(=O)c1sc(NC(=O)COc2ccc(Cl)cc2C)nc1C	inactive: -9.03%
COC(=O)c1sccc1NC(=O)C1CCCCC1C(=O)O (stereo not given)	inactive: 4.8%
CCN(CC(=O)Nc1c(F)cccc1F)C(=O)C1COc2ccccc2O1 (stereo not given)	inactive: -10%
O=C(O)CC/C(=N\Nc1ccc([N+](=O)[O-])cc1S(=O)(=O)N1CCOCC1)c1cccs1	inactive: -3.22%

SMILES	growth rescue (activation)
CCc1cccc(C)c1NS(=O)(=O)c1cccs1	inactive: 23.4%
COc1ccc(C(=O)N2CCC(C)(C(=O)O)C2)cc1OC (stereo not given)	inactive: 13%
CC1CN(S(=O)(=O)c2ccc(C(=O)NCCCn3ccnc3)cc2)CC(C)O1 (stereo not given)	inactive: -4.71%
Cc1ccc(C)c(Nc2nc(-c3cccnc3)cs2)c1	inactive: 15.4%
Cc1ccc(-n2c(C)cc(C(=O)CN3CCOCC3)c2C)cc1C	inactive: -4.26%
O=C(COc1ccccc1Cl)NCCCNC(=O)c1ccco1	inactive: -1.58%
CCn1c(O)c(/C=N/N=C/c2ccc(OC)cc2)c2cc(C3=NNC(=O)CC3)ccc21	inactive: -8.54%
Cc1ccc(-c2onc3ccc(Br)cc23)cc1	inactive: 4.77%
Cc1cc(OC(=O)c2ccco2)c(Sc2ccccc2[N+](=O)[O-])c(=O)o1	inactive: 3.59%
O=C(COCC(=O)N1CCOCC1)N1CCOCC1	inactive: 5.48%
O=C(c1cccs1)N(c1ccc(Cl)cc1)C1C=CS(=O)(=O)C1 (stereo not given)	inactive: 2.19%
O=C(CSc1ccccc1)Nc1ccc2c(c1)OCO2	inactive: 30.5%
COC(=O)CNC(c1ccccc1)c1cc(Br)ccc1N (stereo not given)	inactive: 20.8%
CC/C(O)=C1\C(=O)CC(c2ccccc2)CC1=NC(C)C (stereo not given)	inactive: -5.25%
CCCNC(=O)CN(C)CC(=O)Nc1ccccc1C#N	inactive: -0.655%
CNc1ccc([N+](=O)[O-])cc1-c1nc2ccccc2[nH]c1=O	inactive: -24.2%
CCOc1ccc(S(=O)(=O)N(CC)CC(=O)NCc2cccnc2)cc1	inactive: -18.6%
O=C(Nc1cccc(Cl)c1)Nc1ccnc(-c2cccnc2)n1	inactive: 12%
CC(=O)NCc1ccc(-c2csc(NC(=O)CCc3nc4ccccc4c(=O)[nH]3)n2)s1	inactive: -6.81%
CC(C(=O)NCC1(c2ccccc2)CCOCC1)N1CCOCC1 (stereo not given)	inactive: 3.75%
COc1ccccc1N1CCN(CC(=O)Nc2c(C)n(C)n(-c3ccccc3)c2=O)CC1	inactive: 5.29%
O=C(Nc1cc(Cl)ccc1Cl)c1cc(-c2ccco2)on1	inactive: 2%
CCOC(=O)C1(CCCc2ccccc2)CCN(Cc2cnn(C)c2)CC1	inactive: 0.884%
CC(=O)NC1C(Oc2ccc3c(C)cc(=O)oc3c2)OC(COC(C)=O)C(OC(C)=O)C1OC(C)=O (stereo not given)	inactive: -1.95%

SMILES	growth rescue (activation)
CCN(CC(=O)NCCc1ccccc1)S(=O)(=O)c1ccc(C)cc1	inactive: 11%
CC(=O)Nc1ccc(NC(=O)C(C)OC(=O)c2ccc(S(=O)(=O)N3CCCCC3)cc2)cc1 (stereo not given)	inactive: 22.7%
CCOC(=O)c1c(NC(=O)CSc2nc3ccccc3o2)sc(C(C)=O)c1C	inactive: 8.67%
CC1CCCN(S(=O)(=O)c2ccc(Cl)s2)C1 (stereo not given)	inactive: 16.9%
O=C(CN1CCCc2ccccc21)N/N=C/c1c(O)ccc2ccccc12	inactive: 16.6%
O=C(OCCN=C1NS(=O)(=O)c2ccccc21)c1ccco1	inactive: -0.217%
Cc1ccc(C(=O)N2CCN(C(=O)CN3CCCC3)C2)cc1	inactive: 13.6%
COc1ccc(NC(=O)CSc2ccccc2)cc1S(=O)(=O)N1CCCCC1	inactive: 4.95%
N#Cc1ccc(CN2CCN(CC(=O)NCCc3ccc(Cl)cc3Cl)CC2)cc1	inactive: -3.74%
CCOc1ccc(N=C2NC(=O)/C(=C/C(=O)OC)S2)cc1	inactive: -24.7%
CC(C)(C)NC(=O)/C(=C\c1ccco1)NC(=O)c1ccco1	inactive: -13.7%
Cc1ccc(S(=O)(=O)N(C)C)cc1NC(=O)C(C)OC(=O)C1CCCCC1 (stereo not given)	inactive: 8.37%
O=[N+]([O-])c1ccc(COc2ccc(-c3[nH]ncc3-c3ccccc3)c(O)c2)cc1	inactive: -4.08%
Cc1ccc(/C=C/C(=O)Nc2ccc(S(=O)(=O)Nc3onc(C)c3C)cc2)cc1	inactive: 14%
O=C(Nc1ccc(Cl)c(Cl)c1)Nc1ccc(Br)cc1F	inactive: 19.3%
O=C(c1ccco1)N(Cc1ccco1)Cc1cc2ccccc2[nH]c1=O	inactive: 9.1%
CC(=O)Nc1ccc(S(=O)(=O)Nc2cccc(S(=O)(=O)N(C)c3ccccc3)c2)cc1	inactive: 7.13%
Cc1cc(C(=O)N2C(C)CCCC2C)no1 (stereo not given)	inactive: 12.7%
Cc1cc(C)c(NC(=O)CS(=O)CC(=O)NCC2CCCO2)c(C)c1 (stereo not given)	inactive: 18.5%
Cn1cc(CCC(=O)NCCCc2ccccc2)c2ccccc21	inactive: 17.1%
NC(=O)COC(=O)CSc1ccc2ccccc2c1	inactive: 25.7%
Cc1ccc(/C=C2\SC(=O)N(CCC(=O)N3CCN(C)CC3)C2=O)cc1	inactive: -10.4%

Source: PubChem BioAssay AID1347073 (National Center for Advancing Translational Sciences (NCATS), 2019)
